Laboratory results from PubChem BioAssay (NCATS).
The shares of active, inactive and inconclusive entries below differ from those in the screen. No potency is given beside an inconclusive call; the fits are too rough. Activity calls are given as the source filed them. The call rests on the fitted dose curve; in most records, active means well fitted cell-killing curve with a large enough effect; inconclusive means small, poorly fitted or top-dose-only effect, or effect the other way; inactive means no such curve, though single readings can be large or run the other way.

Assay: Viability qHTS for spleen associated tyrosine kinase inhibitor (SYKi) drug resistant MV4-11 cells (AID 1963824); further: nearly all actives have a fitted effect of over 35% in size
Details: SYKi-resistant MV4-11 viability, CellTiter-Glo, 72 h; series mostly up to 45 µM
How it was run: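 SYK-inhibitor-resistant MV4-11 AML cells were seeded at 500 per well onto compound and cultured 72 hours (37 °C, 5% CO2). CellTiter-Glo was then added, and after 10 min at room temperature, luminescence gave viability.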
Potency means the concentration at half of the fitted maximal effect; tags describe the fitted curve by direction and shape.

| SMILES | Potency | viability, % of control |
| --- | --- | --- |
| CCCCC(=O)OCC(=O)[C@H]1[C@H](C)C[C@H]2[C@@H]3C[C@H](F)C4=CC(=O)C=C[C@]4(C)[C@@]3(F)[C@@H](O)C[C@@]21C | inconclusive [cytotoxic, full curve, poor fit] | – |
| C=C(CO)C12OC1C1(C)C(=CC2=O)C(O)C(O)CC1C (stereo not given) | inactive | – |
| COCCc1ccc(OCC2CO2)cc1 (stereo not given) | inactive | – |
| Cc1cc(-c2ncc(-c3cccnc3)cc2/C=C/c2ccccc2)cnc1-c1cccnc1 | inactive | – |
| CC1=C2[C@@H]([C@H](C)CC[C@H]2/C=C(\C)C(=O)O)[C@H](O)C1 | inactive | – |
| O=C(/C=C/c1ccccc1)OCc1ccccc1 | inactive | – |
| COC(=O)c1cc(Cl)c(NC(C)=O)cc1OC | inactive | – |
| O=C(NCCO)c1cc(C(=O)NCCO)cc(C(=O)NCCO)c1 | inactive | – |
| O=C(O)c1cc(O)c2cccc(O)c2c1O[C@@H]1O[C@H](CO)[C@@H](O)[C@H](O)[C@H]1O | inconclusive [cytotoxic, single point] | – |
| CC1(C)CC[C@]2(C(=O)O[C@@H]3O[C@H](CO)[C@@H](O)[C@H](O)[C@H]3O)CC[C@]3(C)C(=CCC4[C@@]5(C)CC[C@H](O[C@@H]6O[C@H](C(=O)O)[C@@H](O)[C@H](O)[C@H]6O)[C@@](C)(CO)C5CC[C@]43C)C2C1 (stereo not given in full) | – | inactive: 100% [at 9.25 µM] |
| CC[C@H](C)[C@H]1O[C@]2(CC[C@@H]1C)C[C@@H]1C[C@@H](C/C=C(\C)[C@@H](O[C@H]3C[C@H](OC)[C@@H](O[C@H]4C[C@H](OC)[C@@H](O)[C@H](C)O4)[C@H](C)O3)[C@@H](C)/C=C/C=C3\CO[C@@H]4[C@H](O)C(C)=C[C@@H](C(=O)O1)[C@]34O)O2 | inconclusive [cytotoxic, full curve, poor fit] | – |
| CC(CCC1(O)OC2CC3C4CC=C5C[C@@H](O[C@@H]6O[C@H](CO)[C@@H](O[C@@H]7O[C@@H](C)[C@H](O)[C@@H](O)[C@H]7O)[C@H](O)[C@H]6O[C@@H]6O[C@@H](C)[C@H](O)[C@@H](O)[C@H]6O)CC[C@]5(C)C4CC[C@]3(C)[C@@]2(O)[C@@H]1C)CO[C@@H]1O[C@H](CO)[C@@H](O)[C@H](O)[C@H]1O (stereo not given in full) | inconclusive [cytotoxic, partial curve] | – |
| COc1ccc(CC(NC(C)=O)C(=O)O)cc1 (stereo not given) | inactive | – |
| c1ccc(-c2n[nH]c3c2oc2ccccc23)cc1 | inconclusive [cytotoxic, full curve] | – |
| CC(=O)c1c(C)cc2cccc(O)c2c1O[C@@H]1O[C@H](CO)[C@@H](O)[C@H](O)[C@H]1O | inconclusive [cytotoxic, partial curve] | – |
| CC(=O)OC1[C@H]2[C@@H](C[C@@H](C)[C@@H]3C=CC(=O)[C@@]13C)OC(=O)[C@@H]2C (stereo not given in full) | inconclusive [cytotoxic, full curve] | – |
| CC1=CC2=C(C)C(=O)C(C)(O)C(O)C2CO1 (stereo not given) | inactive | – |
| O=C(NCc1cccs1)c1cc2nc(-c3ccco3)cc(C(F)(F)Cl)n2n1 | inconclusive [cytotoxic, single point] | – |
| OC[C@H]1O[C@@H](OC(CCCCc2ccc(O)cc2)CCc2ccc(O)cc2)[C@H](O[C@@H]2OC[C@](O)(CO)[C@H]2O)[C@@H](O)[C@@H]1O (stereo not given in full) | inconclusive [rising, full curve, poor fit] | – |
| O=C1CC[C@@H](C(=O)N2CSC[C@H]2C(=O)O)N1 | inactive | – |

| SMILES | Potency | viability, % of control |
| --- | --- | --- |
| CO[C@@]12[C@H](COC(N)=O)C3=C(C(=O)C(C)=C(N)C3=O)N1C[C@@H]1N[C@@H]12 | inconclusive [cytotoxic, full curve, poor fit] | – |
| CC(C)OC(=O)OCOP(=O)(COC(C)Cn1cnc2c(N)ncnc21)OCOC(=O)OC(C)C (stereo not given) | active: 2.06 µM | – |
| COc1cc2c(cc1OC)CN(C(=O)[C@@H](NCc1ccncc1)C(C)(C)C)CC2 | inconclusive [cytotoxic, single point] | – |
| Nc1ncnc2c1nc(N)n2[C@@H]1O[C@H](CO)[C@@H](O)[C@H]1O | active: 0.517 µM | – |
| CCCCCCCCCCCCCCC[C@H](O)[C@@H](N)CO | inconclusive [cytotoxic, single point] | – |
| C[C@@H]1O[C@@H](O[C@H]2[C@H](O)[C@@H](O)[C@H](OC[C@H]3O[C@@H](OC(=O)[C@]45CCC(C)(C)C[C@H]4C4=CCC6[C@@]7(C)C[C@H](O)[C@H](O[C@@H]8O[C@H](CO)[C@@H](O)[C@H](O)[C@H]8O)[C@@](C)(C(=O)O)C7CC[C@@]6(C)[C@]4(C)CC5)[C@H](O[C@@H]4O[C@H](CO)[C@@H](O)[C@H](O)[C@H]4O)[C@@H](O)[C@@H]3O)O[C@@H]2CO)[C@H](O)[C@H](O)[C@H]1O (stereo not given in full) | – | inactive: 87% [at 9.25 µM] |
| Cn1cc(-c2c[nH]c3ncnc(N4CCOCC4)c23)cn1 | inconclusive [cytotoxic, partial curve] | – |
| O=C1c2ccc(Nc3ccc(F)cc3F)cc2CCc2ccc(OCC(O)CO)cc21 (stereo not given) | active: 9.2 µM | – |
| COC(=O)C1(C)CCCC2(C)c3ccc(C(C)C)cc3C(O)C(O)C12 (stereo not given) | inconclusive [cytotoxic, single point] | – |
| Fc1ccc(-c2nc(-c3c(F)cccc3F)[nH]c2-c2ccncc2)cc1 | inconclusive [cytotoxic, partial curve, poor fit] | – |
| COC1C=C([C@@H]2CC=C3[C@@]4(C)C(CC[C@]32C)[C@@]2(C)C=CC(=O)C(C)(C)C2C[C@H]4OC(C)=O)C(=O)O1 (stereo not given in full) | inconclusive [cytotoxic, partial curve, poor fit] | – |
| O=C(O)[C@H](Cc1ccc(Nc2nccc3ccncc23)cc1)NC1=C(Br)C(=O)C12CCCCC2 | inconclusive [cytotoxic, partial curve, poor fit] | – |
| CC(C)[C@@H](C(=O)O)N1Cc2c(cc(O)c3c2O[C@]2(C3)[C@H](C)CCC3C(C)(C)[C@H](O)[C@H](O)C[C@@]32C)C1=O (stereo not given in full) | inconclusive [cytotoxic, partial curve] | – |
| CC(=O)N1CCN(NC(=O)c2ccc(F)cc2)CC1 | inactive | – |
| COc1cccc(CNc2ccc(S(=O)(=O)Nc3nc4ccccc4s3)cc2)c1O | inconclusive [cytotoxic, partial curve, poor fit] | – |
| CS(=O)(=O)c1ccc(-n2nc(C(F)(F)F)cc2-c2ccc(F)cc2)cc1 | inconclusive [cytotoxic, single point] | – |
| CNc1ccc([N+](=O)[O-])cc1-n1cnc(-c2ccc(C(F)(F)F)cc2)c1 | inconclusive [cytotoxic, partial curve] | – |
| CC(=O)O[C@@H]1[C@H](O[C@@H]2OC[C@](O)(CO)[C@H]2O)[C@@H](O[C@@H]2O[C@@H](C)[C@H](O)[C@@H](O[C@@H]3O[C@H](CO)[C@@H](O)[C@H](O)[C@H]3O)[C@H]2O)[C@H](OC(=O)[C@]23CCC(C)(C)C[C@H]2C2=CCC4[C@@]5(C)C[C@H](O)[C@H](O[C@@H]6O[C@H](C(=O)O)[C@@H](O)[C@H](O)[C@H]6O)[C@@](C)(C(=O)O)C5CC[C@@]4(C)[C@]2(C)CC3)O[C@@H]1C (stereo not given in full) | – | inactive: 95.1% [at 9.25 µM] |
| C/C=C/C=C/C(=O)N1CC[C@]23c4ccccc4N[C@H]4N(C)c5cccc6c5[C@@]42CCN([C@H]6C2OC2(C)C)[C@H]13 (stereo not given in full) | inconclusive [cytotoxic, partial curve, poor fit] | – |
| C[N+]1(C)CCC(OC(=O)C(O)(c2ccccc2)C2CCCC2)C1 (stereo not given) | inconclusive [rising, partial curve, poor fit] | – |
